# Data published in the supplement of paper PMC8728848.
# The other results are listed elsewhere or left out.
# How the values were obtained:
# Test in all cases: glycan array binding signal (z-score within array); higher = stronger binding
# Settings in all cases: glycan notation: IUPAC condensed, linker removed
# [1] = target: Neu5Ac(a2-3)Gal(b1-4)GlcNAc(b1-3)[Neu5Ac(a2-3)Gal(b1-4)GlcNAc(b1-6)]GalNAc
# Summary of the method: (§1)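 Negative Z-scores can be read as non-binding. The Z-score is calculated within each array and then averaged across arrays of one protein sequence at different concentrations or buffers and across linkers. Arrays, 3228 in all, were curated from the Consortium for Functional Glycomics database and kept only where the protein sequence was available.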
# [2] = target: Neu5Ac(a2-3)Gal(b1-4)GlcNAc(b1-6)GalNAc
# Summary of the method: as §1
# [3] = target: Neu5Ac(a2-3)Gal(b1-4)GlcNAc(b1-6)[Gal(b1-3)]GalNAc
# Summary of the method: as §1
# [4] = target: Neu5Ac(a2-3)Gal(b1-4)GlcNAc(b1-6)[Neu5Ac(a2-3)Gal(b1-3)]GalNAc
# Summary of the method: as §1
# [5] = target: Neu5Ac(a2-3)Gal(b1-4)GlcNAc6S
# Summary of the method: as §1
# [6] = target: Neu5Ac(a2-3)Gal(b1-4)[Fuc(a1-3)]GlcNAc
# Summary of the method: as §1
# [7] = target: Neu5Ac(a2-3)Gal(b1-4)[Fuc(a1-3)]GlcNAc(b1-2)Man
# Summary of the method: as §1
# [8] = target: Neu5Ac(a2-3)Gal(b1-4)[Fuc(a1-3)]GlcNAc(b1-3)Gal
# Summary of the method: as §1
# [9] = target: Neu5Ac(a2-3)Gal(b1-4)[Fuc(a1-3)]GlcNAc(b1-3)Gal(b1-4)GlcNAc
# Summary of the method: as §1
# [10] = target: Neu5Ac(a2-3)Gal(b1-4)[Fuc(a1-3)]GlcNAc(b1-3)Gal(b1-4)[Fuc(a1-3)]GlcNAc(b1-3)Gal(b1-4)[Fuc(a1-3)]GlcNAc
# Summary of the method: as §1
# [11] = target: Neu5Ac(a2-3)Gal(b1-4)[Fuc(a1-3)]GlcNAc(b1-3)GalNAc
# Summary of the method: as §1
# [12] = target: Neu5Ac(a2-3)Gal(b1-4)[Fuc(a1-3)]GlcNAc(b1-6)[Gal(b1-3)]GalNAc
# Summary of the method: as §1
# [13] = target: Neu5Ac(a2-3)Gal(b1-4)[Fuc(a1-3)]GlcNAc(b1-6)[Neu5Ac(a2-3)Gal(b1-3)]GalNAc
# Summary of the method: as §1
# [14] = target: Neu5Ac(a2-3)Gal(b1-4)[Fuc(a1-3)]GlcNAc6S
# Summary of the method: as §1
# [15] = target: Neu5Ac(a2-3)Gal6S(b1-4)GlcNAc
# Summary of the method: as §1
# [16] = target: Neu5Ac(a2-3)Gal6S(b1-4)[Fuc(a1-3)]GlcNAc
# Summary of the method: as §1
# Neu5Ac(a2-3)GalNAc = target: Neu5Ac(a2-3)GalNAc
# Summary of the method: as §1
# [17] = target: Neu5Ac(a2-3)GalNAc(b1-4)GlcNAc
# Summary of the method: as §1
# [18] = target: Neu5Ac(a2-3)[GalNAc(b1-4)]Gal(b1-4)Glc
# Summary of the method: as §1
# [19] = target: Neu5Ac(a2-3)[GalNAc(b1-4)]Gal(b1-4)GlcNAc
# Summary of the method: as §1
# [20] = target: Neu5Ac(a2-3)[GalNAc(b1-4)]Gal(b1-4)GlcNAc(b1-3)GalNAc
# Summary of the method: as §1
# [21] = target: Neu5Ac(a2-3)[Neu5Ac(a2-6)]GalNAc
# Summary of the method: as §1
# Neu5Ac(a2-6)Gal = target: Neu5Ac(a2-6)Gal
# Summary of the method: as §1
# [22] = target: Neu5Ac(a2-6)Gal(b1-3)GlcNAc(b1-3)[Gal(b1-4)GlcNAc(b1-6)]Gal(b1-4)Glc
# Summary of the method: as §1
# Neu5Ac(a2-6)Gal(b1-4)Glc = target: Neu5Ac(a2-6)Gal(b1-4)Glc
# Summary of the method: as §1
# [23] = target: Neu5Ac(a2-6)Gal(b1-4)GlcNAc
# Summary of the method: as §1
# [24] = target: Neu5Ac(a2-6)Gal(b1-4)GlcNAc(b1-2)Man
# Summary of the method: as §1
# [25] = target: Neu5Ac(a2-6)Gal(b1-4)GlcNAc(b1-2)Man(a1-3)Man(b1-4)GlcNAc(b1-4)GlcNAc
# Summary of the method: as §1
# [26] = target: Neu5Ac(a2-6)Gal(b1-4)GlcNAc(b1-2)Man(a1-3)[Gal(b1-4)GlcNAc(b1-2)Man(a1-6)]Man(b1-4)GlcNAc(b1-4)GlcNAc
# Summary of the method: as §1
# [27] = target: Neu5Ac(a2-6)Gal(b1-4)GlcNAc(b1-2)Man(a1-3)[GlcNAc(b1-4)][Neu5Ac(a2-6)Gal(b1-4)GlcNAc(b1-2)Man(a1-6)]Man(b1-4)GlcNAc(b1-4)GlcNAc
# Summary of the method: as §1
binder,measurement,setting,value
Di AAL2 (Agrocybe aegerita) (protein) MTSNVITQDLPIPVASRGFADIVGFGLDGVVIGRNAVNLQPFLAVKNFAQNAGGWLTTKHVRLIADTTGTGKGDIVGFGNAGVYVSVNNGKNTFADPPKMVIANFGYDAGGWRVEKHLRYLADIRKIGRADIIGFGEKGVLVSRNNGGLNFGPATLVLKDFGYDAGGWRLDRHLRFLADVTGNGHLDIVGFGDKHVFISRNNGDGTFAPAKSVIDNFCIDAGGWKIGDHPRFVADLTGDGTADIIGCGKAGCWVALNNGGGVFGQVKLVINDFGTDKGWQAAKHPRFIADLTGNGRGDVVGFGNAGVYVALNNGDGTFQSAKLVLKDFGVQQGWTVSKHRRFVVDLTGDGCADIIGFGEKETLVSYNDGKGNFGPVKALTNDFSFSGGKWAPETTVCWMANLDSSRHPAPAPMTSNVITQDLPIPVASRGFADIVGFGLDGVVIGRNAVNLQPFLAVKNFAQNAGGWLTTKHVRLIADTTGTGKGDIVGFGNAGVYVSVNNGKNTFADPPKMVIANFGYDAGGWRVEKHLRYLADIRKIGRADIIGFGEKGVLVSRNNGGLNFGPATLVLKDFGYDAGGWRLDRHLRFLADVTGNGHLDIVGFGDKHVFISRNNGDGTFAPAKSVIDNFCIDAGGWKIGDHPRFVADLTGDGTADIIGCGKAGCWVALNNGGGVFGQVKLVINDFGTDKGWQAAKHPRFIADLTGNGRGDVVGFGNAGVYVALNNGDGTFQSAKLVLKDFGVQQGWTVSKHRRFVVDLTGDGCADIIGFGEKETLVSYNDGKGNFGPVKALTNDFSFSGGKWAPETTVCWMANLDSSRH,glycan array binding signal (z-score),[1],-0.145
same,glycan array binding signal (z-score),[2],-0.218
same,glycan array binding signal (z-score),[3],-0.257
same,glycan array binding signal (z-score),[4],-0.204
same,glycan array binding signal (z-score),[5],0.088
same,glycan array binding signal (z-score),[6],-0.211
same,glycan array binding signal (z-score),[7],-0.258
same,glycan array binding signal (z-score),[8],-0.249
same,glycan array binding signal (z-score),[9],-0.168
same,glycan array binding signal (z-score),[10],-0.282
same,glycan array binding signal (z-score),[11],-0.309
same,glycan array binding signal (z-score),[12],-0.336
same,glycan array binding signal (z-score),[13],-0.307
same,glycan array binding signal (z-score),[14],0.011
same,glycan array binding signal (z-score),[15],-0.006
same,glycan array binding signal (z-score),[16],-0.156
same,glycan array binding signal (z-score),Neu5Ac(a2-3)GalNAc,-0.281
same,glycan array binding signal (z-score),[17],-0.21
same,glycan array binding signal (z-score),[18],-0.292
same,glycan array binding signal (z-score),[19],-0.296
same,glycan array binding signal (z-score),[20],-0.285
same,glycan array binding signal (z-score),[21],-0.265
same,glycan array binding signal (z-score),Neu5Ac(a2-6)Gal,-0.266
same,glycan array binding signal (z-score),[22],-0.328
same,glycan array binding signal (z-score),Neu5Ac(a2-6)Gal(b1-4)Glc,-0.28
same,glycan array binding signal (z-score),[23],-0.311
same,glycan array binding signal (z-score),[24],-0.307
same,glycan array binding signal (z-score),[25],-0.325
same,glycan array binding signal (z-score),[26],-0.205
same,glycan array binding signal (z-score),[27],-0.319
